# Assay results: the supplement of paper PMC8728848
# The list shows a part of the results.
# What was measured:
# Assay in all cases: glycan array binding signal (z-score within array); higher = stronger binding
# Conditions in all cases: glycan notation: IUPAC condensed, linker removed
# [1] = biological target: Gal(b1-4)GlcNAc(b1-6)Gal(b1-4)GlcNAc
# Summary of the method: (§1)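 The binding signal is a Z-score computed within each array. Data were drawn from 3228 arrays in the Consortium for Functional Glycomics database, restricted to those with a known protein sequence. Scores were averaged over arrays of the same protein sequence at different concentrations or buffers, and over linkers, and negative values can be taken as non-binding.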
# [2] = biological target: Gal(b1-4)GlcNAc(b1-6)GalNAc
# Summary of the method: as §1
# [3] = biological target: Gal(b1-4)GlcNAc(b1-6)[Gal(b1-3)]GalNAc
# Summary of the method: as §1
# [4] = biological target: Gal(b1-4)GlcNAc(b1-6)[Gal(b1-4)GlcNAc(b1-3)]GalNAc
# Summary of the method: as §1
# Gal(b1-4)GlcNAc6P = biological target: Gal(b1-4)GlcNAc6P
# Summary of the method: as §1
# Gal(b1-6)Gal = biological target: Gal(b1-6)Gal
# Summary of the method: as §1
# Gal3S(b1-3)GalNAc = biological target: Gal3S(b1-3)GalNAc
# Summary of the method: as §1
# Gal3S(b1-3)GlcNAc = biological target: Gal3S(b1-3)GlcNAc
# Summary of the method: as §1
# [5] = biological target: Gal3S(b1-3)[Fuc(a1-4)]GlcNAc
# Summary of the method: as §1
# Gal3S(b1-4)Glc = biological target: Gal3S(b1-4)Glc
# Summary of the method: as §1
# Gal3S(b1-4)Glc6S = biological target: Gal3S(b1-4)Glc6S
# Summary of the method: as §1
# Gal3S(b1-4)GlcNAc = biological target: Gal3S(b1-4)GlcNAc
# Summary of the method: as §1
# [6] = biological target: Gal3S(b1-4)[Fuc(a1-3)]Glc6S
# Summary of the method: as §1
# [7] = biological target: Gal3S(b1-4)[Fuc(a1-3)]GlcNAc
# Summary of the method: as §1
# [8] = biological target: Gal3S(b1-4)[Fuc(a1-3)]GlcNAc6S
# Summary of the method: as §1
# Gal3S4S(b1-4)GlcNAc = biological target: Gal3S4S(b1-4)GlcNAc
# Summary of the method: as §1
# Gal3S6S(b1-4)GlcNAc = biological target: Gal3S6S(b1-4)GlcNAc
# Summary of the method: as §1
# Gal3S6S(b1-4)GlcNAc6S = biological target: Gal3S6S(b1-4)GlcNAc6S
# Summary of the method: as §1
# Gal4S(b1-4)GlcNAc = biological target: Gal4S(b1-4)GlcNAc
# Summary of the method: as §1
# Gal4S6S(b1-4)GlcNAc = biological target: Gal4S6S(b1-4)GlcNAc
# Summary of the method: as §1
# Gal6P(b1-4)GlcNAc = biological target: Gal6P(b1-4)GlcNAc
# Summary of the method: as §1
# Gal6S(b1-3)GlcNAc = biological target: Gal6S(b1-3)GlcNAc
# Summary of the method: as §1
# Gal6S(b1-3)GlcNAc6S = biological target: Gal6S(b1-3)GlcNAc6S
# Summary of the method: as §1
# Gal6S(b1-4)Glc = biological target: Gal6S(b1-4)Glc
# Summary of the method: as §1
# Gal6S(b1-4)Glc6S = biological target: Gal6S(b1-4)Glc6S
# Summary of the method: as §1
# Gal6S(b1-4)GlcNAc = biological target: Gal6S(b1-4)GlcNAc
# Summary of the method: as §1
# Gal6S(b1-4)GlcNAc6S = biological target: Gal6S(b1-4)GlcNAc6S
# Summary of the method: as §1
# GalNAc(a1-3)Gal = biological target: GalNAc(a1-3)Gal
# Summary of the method: as §1
# GalNAc(a1-3)GalNAc = biological target: GalNAc(a1-3)GalNAc
# Summary of the method: as §1
# [9] = biological target: GalNAc(a1-3)GalNAc(b1-3)Gal(a1-4)Gal(b1-4)Glc
# Summary of the method: as §1
# [10] = biological target: GalNAc(a1-3)GalNAc(b1-3)Gal(a1-4)Gal(b1-4)GlcNAc
# Summary of the method: as §1
# GalNAc(b1-3)Gal = biological target: GalNAc(b1-3)Gal
# Summary of the method: as §1
# [11] = biological target: GalNAc(b1-3)Gal(a1-4)Gal(b1-4)GlcNAc
# Summary of the method: as §1
# [12] = biological target: GalNAc(b1-3)Gal(a1-4)Gal(b1-4)GlcNAc(b1-3)Gal(b1-4)Glc
# Summary of the method: as §1
# [13] = biological target: GalNAc(b1-3)Gal(a1-6)Gal(b1-4)Glc
# Summary of the method: as §1
# GalNAc(b1-3)GalNAc = biological target: GalNAc(b1-3)GalNAc
# Summary of the method: as §1
# GalNAc(b1-3)GlcNAc = biological target: GalNAc(b1-3)GlcNAc
# Summary of the method: as §1
# GalNAc(b1-4)Gal(b1-4)Glc = biological target: GalNAc(b1-4)Gal(b1-4)Glc
# Summary of the method: as §1
binder,measurement,setting,value
"SGC, Q9M345 (protein) QNLNFTYNGFHPPLTDISLQGLATVTPNGLLKLTNTSVQKTGHAFCTERIRFKDSQNGNVSSFSTTFVFAIHSQIPTLSGHGIAFVVAPTLGLPFALPSQYIGLFNISNNGNDTNHIFAVEFDTIQSSEFGDPNDNHVGIDLNGLRSANYSTAGYRDDHDKFQNLSLISRKRIQVWIDYDNRSHRIDVTVAPFDSDKPRKPLVSYVRDLSSILLEDMYVGFSSATGSVLSEHFLVGWSFRLNGEAPMLSLSKLPKLPRFEPRRIS",glycan array binding signal (z-score),[1],-0.298
same,glycan array binding signal (z-score),[2],1.76
same,glycan array binding signal (z-score),[3],0.322
same,glycan array binding signal (z-score),[4],0.103
same,glycan array binding signal (z-score),Gal(b1-4)GlcNAc6P,-0.448
same,glycan array binding signal (z-score),Gal(b1-6)Gal,-0.329
same,glycan array binding signal (z-score),Gal3S(b1-3)GalNAc,-0.382
same,glycan array binding signal (z-score),Gal3S(b1-3)GlcNAc,-0.366
same,glycan array binding signal (z-score),[5],-0.292
same,glycan array binding signal (z-score),Gal3S(b1-4)Glc,-0.369
same,glycan array binding signal (z-score),Gal3S(b1-4)Glc6S,-0.344
same,glycan array binding signal (z-score),Gal3S(b1-4)GlcNAc,-0.371
same,glycan array binding signal (z-score),[6],0.718
same,glycan array binding signal (z-score),[7],-0.341
same,glycan array binding signal (z-score),[8],-0.354
same,glycan array binding signal (z-score),Gal3S4S(b1-4)GlcNAc,-0.652
same,glycan array binding signal (z-score),Gal3S6S(b1-4)GlcNAc,-0.217
same,glycan array binding signal (z-score),Gal3S6S(b1-4)GlcNAc6S,-0.304
same,glycan array binding signal (z-score),Gal4S(b1-4)GlcNAc,-0.655
same,glycan array binding signal (z-score),Gal4S6S(b1-4)GlcNAc,-0.317
same,glycan array binding signal (z-score),Gal6P(b1-4)GlcNAc,-0.357
same,glycan array binding signal (z-score),Gal6S(b1-3)GlcNAc,-0.261
same,glycan array binding signal (z-score),Gal6S(b1-3)GlcNAc6S,-0.433
same,glycan array binding signal (z-score),Gal6S(b1-4)Glc,0.785
same,glycan array binding signal (z-score),Gal6S(b1-4)Glc6S,-0.104
same,glycan array binding signal (z-score),Gal6S(b1-4)GlcNAc,-0.225
same,glycan array binding signal (z-score),Gal6S(b1-4)GlcNAc6S,0.254
same,glycan array binding signal (z-score),GalNAc(a1-3)Gal,0.322
same,glycan array binding signal (z-score),GalNAc(a1-3)GalNAc,-0.054
same,glycan array binding signal (z-score),[9],-0.323
same,glycan array binding signal (z-score),[10],-0.411
same,glycan array binding signal (z-score),GalNAc(b1-3)Gal,-0.376
same,glycan array binding signal (z-score),[11],-0.095
same,glycan array binding signal (z-score),[12],-0.243
same,glycan array binding signal (z-score),[13],-0.419
same,glycan array binding signal (z-score),GalNAc(b1-3)GalNAc,-0.319
same,glycan array binding signal (z-score),GalNAc(b1-3)GlcNAc,-0.021
same,glycan array binding signal (z-score),GalNAc(b1-4)Gal(b1-4)Glc,-0.276
